# In the supplement of paper PMC12067093, “Discovery and optimisation of a covalent ligand for TRIM25 and its application to targeted protein ubiquitination” (Chemical Science, 2025):
# Targets with the largest changes are over-represented here; the source holds about 21,000 in all.
# Compound: CC1Cc2ccccc2N1C(=O)C1CCCN(C1)C(=O)CCl (mixture of isomers) [TRIM25 ligand 11 (diastereomer mixture)]
# Test: probe-labelled cysteine peptide fold change vs DMSO (competition) (log2 fold change); higher = less target engagement (more negative = stronger competition)
# Conditions: THP-1, incubation time: 4 h
# 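Note: competitive chemoproteomic profiling in live THP-1 cells with an iodoacetamide desthiobiotin (IA-DTB) probe, comparing probe-labelled peptide intensities in compound-treated cells against DMSO-treated controls.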
# Sequence of UniProt Q92889 (Q92889 whole entry, looked up): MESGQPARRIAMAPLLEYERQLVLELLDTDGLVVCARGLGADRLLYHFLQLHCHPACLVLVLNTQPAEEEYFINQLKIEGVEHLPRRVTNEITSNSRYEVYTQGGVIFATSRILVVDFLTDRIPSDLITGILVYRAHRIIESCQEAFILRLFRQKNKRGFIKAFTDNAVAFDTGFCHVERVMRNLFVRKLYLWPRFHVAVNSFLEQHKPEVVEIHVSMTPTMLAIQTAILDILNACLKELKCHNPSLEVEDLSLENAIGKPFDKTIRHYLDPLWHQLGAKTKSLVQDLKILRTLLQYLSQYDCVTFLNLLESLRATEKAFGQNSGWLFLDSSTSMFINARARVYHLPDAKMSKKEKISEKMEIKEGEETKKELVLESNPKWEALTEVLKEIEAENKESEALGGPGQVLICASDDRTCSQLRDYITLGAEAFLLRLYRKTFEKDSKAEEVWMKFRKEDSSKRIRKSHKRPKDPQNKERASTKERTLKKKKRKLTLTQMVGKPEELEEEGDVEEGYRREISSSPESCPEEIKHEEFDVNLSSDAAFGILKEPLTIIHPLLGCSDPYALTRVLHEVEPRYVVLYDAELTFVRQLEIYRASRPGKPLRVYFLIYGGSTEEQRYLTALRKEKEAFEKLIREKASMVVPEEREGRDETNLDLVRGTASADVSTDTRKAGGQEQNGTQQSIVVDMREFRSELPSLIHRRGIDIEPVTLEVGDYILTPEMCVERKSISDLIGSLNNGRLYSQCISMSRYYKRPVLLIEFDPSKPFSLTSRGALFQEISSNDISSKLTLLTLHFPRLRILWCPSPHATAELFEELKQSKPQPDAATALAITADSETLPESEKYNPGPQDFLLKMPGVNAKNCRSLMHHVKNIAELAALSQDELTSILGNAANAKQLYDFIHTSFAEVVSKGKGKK
# Sequence of UniProt Q15717 (Q15717 whole entry, looked up): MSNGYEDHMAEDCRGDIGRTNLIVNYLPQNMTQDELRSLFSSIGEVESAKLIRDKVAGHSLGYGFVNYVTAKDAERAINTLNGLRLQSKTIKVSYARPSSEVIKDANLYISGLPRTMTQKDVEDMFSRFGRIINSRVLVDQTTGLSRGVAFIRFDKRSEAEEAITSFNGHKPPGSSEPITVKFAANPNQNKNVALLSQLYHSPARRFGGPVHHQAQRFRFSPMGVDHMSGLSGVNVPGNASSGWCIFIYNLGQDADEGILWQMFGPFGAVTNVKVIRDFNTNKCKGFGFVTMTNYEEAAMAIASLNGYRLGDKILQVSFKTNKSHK
# Sequence of UniProt Q9NZB2 (Q9NZB2 whole entry, looked up): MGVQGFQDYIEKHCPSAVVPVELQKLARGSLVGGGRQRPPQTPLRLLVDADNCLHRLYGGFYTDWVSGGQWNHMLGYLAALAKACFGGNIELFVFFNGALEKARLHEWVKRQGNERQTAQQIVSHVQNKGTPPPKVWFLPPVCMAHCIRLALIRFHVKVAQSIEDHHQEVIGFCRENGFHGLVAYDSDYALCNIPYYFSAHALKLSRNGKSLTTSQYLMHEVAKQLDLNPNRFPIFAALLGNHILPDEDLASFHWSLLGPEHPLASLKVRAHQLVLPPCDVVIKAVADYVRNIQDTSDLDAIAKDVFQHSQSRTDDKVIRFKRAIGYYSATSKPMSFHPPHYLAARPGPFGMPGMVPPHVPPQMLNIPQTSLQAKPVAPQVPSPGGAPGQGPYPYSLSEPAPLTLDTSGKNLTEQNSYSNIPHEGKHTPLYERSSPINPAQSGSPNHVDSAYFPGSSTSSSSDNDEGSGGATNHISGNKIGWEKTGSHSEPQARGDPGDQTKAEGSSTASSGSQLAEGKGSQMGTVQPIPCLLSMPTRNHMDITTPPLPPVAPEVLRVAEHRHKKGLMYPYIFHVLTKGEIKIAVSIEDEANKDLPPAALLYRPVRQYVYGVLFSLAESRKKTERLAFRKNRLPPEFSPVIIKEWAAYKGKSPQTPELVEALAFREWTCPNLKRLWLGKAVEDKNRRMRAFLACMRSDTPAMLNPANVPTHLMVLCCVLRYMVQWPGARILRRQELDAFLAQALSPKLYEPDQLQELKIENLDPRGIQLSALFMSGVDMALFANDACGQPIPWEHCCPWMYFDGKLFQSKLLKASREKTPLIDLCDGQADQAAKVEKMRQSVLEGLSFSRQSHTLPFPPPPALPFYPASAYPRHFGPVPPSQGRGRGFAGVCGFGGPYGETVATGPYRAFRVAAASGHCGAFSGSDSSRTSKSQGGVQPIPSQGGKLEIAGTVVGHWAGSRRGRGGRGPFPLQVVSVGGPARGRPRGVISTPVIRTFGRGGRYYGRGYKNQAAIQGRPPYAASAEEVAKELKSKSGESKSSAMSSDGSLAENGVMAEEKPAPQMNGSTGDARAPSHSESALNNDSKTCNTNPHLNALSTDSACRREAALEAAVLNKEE
# Sequence of UniProt Q8NCA5 (Q8NCA5 whole entry, looked up): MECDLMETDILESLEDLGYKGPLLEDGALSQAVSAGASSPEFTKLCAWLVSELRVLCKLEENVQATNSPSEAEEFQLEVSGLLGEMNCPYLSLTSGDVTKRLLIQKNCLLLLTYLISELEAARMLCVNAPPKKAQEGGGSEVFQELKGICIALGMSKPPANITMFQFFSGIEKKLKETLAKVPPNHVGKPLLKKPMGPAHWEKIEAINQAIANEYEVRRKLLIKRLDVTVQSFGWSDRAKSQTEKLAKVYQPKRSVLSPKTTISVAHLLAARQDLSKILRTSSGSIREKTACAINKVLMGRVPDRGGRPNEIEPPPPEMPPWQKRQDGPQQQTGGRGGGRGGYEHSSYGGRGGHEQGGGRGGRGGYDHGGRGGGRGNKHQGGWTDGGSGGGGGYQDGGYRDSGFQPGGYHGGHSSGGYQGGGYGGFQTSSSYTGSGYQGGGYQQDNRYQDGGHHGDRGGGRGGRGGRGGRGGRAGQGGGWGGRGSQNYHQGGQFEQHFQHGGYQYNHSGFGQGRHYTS
# Sequence of UniProt Q9BQ52 (Q9BQ52 whole entry, looked up): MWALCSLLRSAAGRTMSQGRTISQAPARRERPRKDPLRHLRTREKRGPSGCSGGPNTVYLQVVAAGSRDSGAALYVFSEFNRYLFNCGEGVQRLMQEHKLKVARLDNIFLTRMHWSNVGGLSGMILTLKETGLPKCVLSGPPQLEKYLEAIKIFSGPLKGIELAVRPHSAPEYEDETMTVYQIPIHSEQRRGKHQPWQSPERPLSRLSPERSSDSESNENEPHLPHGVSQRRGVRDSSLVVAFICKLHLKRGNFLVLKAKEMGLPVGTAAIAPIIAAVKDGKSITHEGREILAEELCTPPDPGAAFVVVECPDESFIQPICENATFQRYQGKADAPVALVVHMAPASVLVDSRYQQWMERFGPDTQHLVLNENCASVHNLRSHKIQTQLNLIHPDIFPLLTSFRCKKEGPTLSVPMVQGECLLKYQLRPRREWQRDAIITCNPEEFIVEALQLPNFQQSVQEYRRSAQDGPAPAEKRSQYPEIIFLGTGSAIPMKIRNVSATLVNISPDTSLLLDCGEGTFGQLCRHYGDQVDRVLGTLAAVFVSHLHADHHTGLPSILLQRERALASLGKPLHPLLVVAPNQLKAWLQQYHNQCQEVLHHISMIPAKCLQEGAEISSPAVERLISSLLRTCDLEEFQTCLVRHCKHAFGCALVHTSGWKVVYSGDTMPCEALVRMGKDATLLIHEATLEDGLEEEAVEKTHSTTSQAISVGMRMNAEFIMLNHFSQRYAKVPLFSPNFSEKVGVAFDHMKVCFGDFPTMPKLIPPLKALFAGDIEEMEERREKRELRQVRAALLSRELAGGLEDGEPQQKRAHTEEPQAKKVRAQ
# Sequence of UniProt Q86WN1 (Q86WN1 whole entry, looked up): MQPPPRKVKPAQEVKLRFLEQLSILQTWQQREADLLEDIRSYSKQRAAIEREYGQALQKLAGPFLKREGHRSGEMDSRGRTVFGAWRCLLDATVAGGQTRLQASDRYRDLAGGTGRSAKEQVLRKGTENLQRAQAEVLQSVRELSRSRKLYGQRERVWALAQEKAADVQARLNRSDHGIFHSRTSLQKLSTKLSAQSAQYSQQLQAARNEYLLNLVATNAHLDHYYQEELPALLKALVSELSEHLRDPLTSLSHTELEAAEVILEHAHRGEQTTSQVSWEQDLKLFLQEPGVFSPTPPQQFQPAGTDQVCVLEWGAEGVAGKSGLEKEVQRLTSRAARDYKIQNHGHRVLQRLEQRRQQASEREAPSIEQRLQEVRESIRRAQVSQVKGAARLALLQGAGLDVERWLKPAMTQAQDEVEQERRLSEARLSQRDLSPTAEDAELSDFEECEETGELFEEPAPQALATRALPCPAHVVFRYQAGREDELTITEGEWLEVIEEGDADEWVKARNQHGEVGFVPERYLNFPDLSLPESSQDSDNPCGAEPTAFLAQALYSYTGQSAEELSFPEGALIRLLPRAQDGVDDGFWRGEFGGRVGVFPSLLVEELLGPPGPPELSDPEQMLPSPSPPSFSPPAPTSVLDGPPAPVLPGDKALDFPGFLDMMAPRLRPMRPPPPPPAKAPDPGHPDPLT
# Sequence of UniProt Q02790 (Q02790 whole entry, looked up): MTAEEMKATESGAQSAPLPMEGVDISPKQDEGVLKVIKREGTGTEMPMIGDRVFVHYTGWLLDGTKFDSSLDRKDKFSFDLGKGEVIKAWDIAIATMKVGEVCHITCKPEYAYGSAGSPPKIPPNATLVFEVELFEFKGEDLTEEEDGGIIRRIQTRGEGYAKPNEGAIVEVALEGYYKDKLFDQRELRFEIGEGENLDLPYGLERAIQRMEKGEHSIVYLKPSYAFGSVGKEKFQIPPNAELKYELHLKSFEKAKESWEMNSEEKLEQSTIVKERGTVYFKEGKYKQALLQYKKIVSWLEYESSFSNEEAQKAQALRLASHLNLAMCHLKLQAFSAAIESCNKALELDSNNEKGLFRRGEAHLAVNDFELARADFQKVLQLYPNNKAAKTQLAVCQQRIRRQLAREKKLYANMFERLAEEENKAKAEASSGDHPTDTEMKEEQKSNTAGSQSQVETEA
Target,probe-labelled cysteine peptide fold change (10 µM),probe-labelled cysteine peptide fold change (50 µM)
FCHSD1_Q86WN1_88_CLLDATVAGGQTR (UniProt Q86WN1),0.155,-0.0769
EIF3A_Q14152_160_QCLDLLR (UniProt Q14152),0.00482,0.157
ELAC2_Q9BQ52_245_DSSLVVAFICK (UniProt Q9BQ52),-0.114,0.113
ELAVL1_Q15717_13_SNGYEDHMAEDCR (UniProt Q15717),1.56,0.972
EIF3B_P55884_700_DRFCQLLWR (UniProt P55884),0.0444,0.133
FKBP4_Q02790_103+107_VGEVCHITCKPEYAYGSAGSPPK (UniProt Q02790),0.149,0.134
EFTUD2_Q15029_639_SYPSLTTKVEESGEHVILGTGELYLDCVMHDLRK (UniProt Q15029),-0.604,-0.158
EPRS_P07814_660_NSKHEELMLGDPCLK (UniProt P07814),-0.67,-0.626
FAM98A_Q8NCA5_126_MLCVNAPPK (UniProt Q8NCA5),-0.0668,-0.0637
FAM120A_Q9NZB2_1088+1103_TCNTNPHLNALSTDSACR (UniProt Q9NZB2),-0.216,-0.743
FMC1_Q96HJ9-2_414_DQDLASCDRDR<|>LUC7L2_Q9Y383_348_DQDLASCDRDR (UniProt Q9Y383+Q96HJ9),-0.661,0.0136
EXOC7_Q9UPT5_367_HGPLAGRDDMLDVETDAYIHCVSAFVK (UniProt Q9UPT5),-0.126,-0.0931
ERCC4_Q92889_723_GIDIEPVTLEVGDYILTPEMCVER (UniProt Q92889),-0.0833,-0.0298
